# Laboratory results from the supplement of paper PMC4604168 (melanoma cell lines).
# The other results are listed elsewhere or left out. Repeats are few or missing, and single values can be far off.
# Legend:
# Test in all cases: cell count relative to DMSO control; melanoma cells; higher = more viable cells
# Conditions in all cases: library dose: low library concentration; 72 h
# MZ2-MEL = tested on: MZ2-MEL
# MeWo = tested on: MeWo
# RPMI7951 = tested on: RPMI7951
# RVH-421 = tested on: RVH-421
# SkMel28 = tested on: SkMel28
# SkMel2 = tested on: SkMel2
# SkMel30 = tested on: SkMel30
# UACC62 = tested on: UACC62
# 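Also: cell number obtained by counting DAPI-stained nuclei in high-throughput microscope images with image analysis software, screen run in 1,536-well plates.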
SMILES,cell count (MZ2-MEL) [%],cell count (MeWo) [%],cell count (RPMI7951) [%],cell count (RVH-421) [%],cell count (SkMel28) [%],cell count (SkMel2) [%],cell count (SkMel30) [%],cell count (UACC62) [%]
"CC(C)C[C@H](NC(=O)[C@H](Cc1ccccc1)NC(=O)c1cnccn1)B(O)O [Bortezomib] + Cn1c(Nc2ccc(C(F)(F)F)cc2)nc2cc(Oc3ccnc(-c4ncc(C(F)(F)F)[nH]4)c3)ccc21 [CHIR265] (first compound 0.001 µM, partner dose 0.08 µM)",45.1,75.4,53.1,46.2,66.9,105,44.2,50.3
"Cc1cn(-c2cc(NC(=O)c3ccc(C)c(Nc4nccc(-c5cccnc5)n4)c3)cc(C(F)(F)F)c2)cn1 [nilotinib] + CC(C)C[C@H](NC(=O)[C@H](Cc1ccccc1)NC(=O)c1cnccn1)B(O)O [Bortezomib] (first compound 0.2 µM, partner dose 0.001 µM)",95.3,94,99.8,75.9,109,83.3,96.9,84.9
"Cc1cn(-c2cc(NC(=O)c3ccc(C)c(Nc4nccc(-c5cccnc5)n4)c3)cc(C(F)(F)F)c2)cn1 [nilotinib] + CCN(CC)CCNC(=O)c1c(C)[nH]c(/C=C2\C(=O)Nc3ccc(F)cc32)c1C [sunitinib] (first compound 0.2 µM, partner dose 0.4 µM)",90.4,97.3,107,109,96.5,115,96.8,89.1
"CC(C)C[C@H](NC(=O)[C@H](Cc1ccccc1)NC(=O)c1cnccn1)B(O)O [Bortezomib] + OCc1c[nH]c2ccccc12 [Indole-3-carbinol] (first compound 0.001 µM, partner dose 0.8 µM)",87.7,85.2,79.9,60.9,89.3,97.5,92.6,89.7
"Cc1cn(-c2cc(NC(=O)c3ccc(C)c(Nc4nccc(-c5cccnc5)n4)c3)cc(C(F)(F)F)c2)cn1 [nilotinib] + CS(=O)(=O)c1ccc(C(=O)Nc2ccc(Cl)c(-c3ccccn3)c2)c(Cl)c1 [vismodegib] (first compound 0.2 µM, partner dose 1 µM)",102,98.4,88.7,105,93.7,98.2,81.2,122
"Cc1cc(Nc2cc(N3CCN(C)CC3)nc(/C=C/c3ccccc3)n2)n[nH]1 + Nc1nc(F)nc2c1ncn2[C@@H]1O[C@H](CO)[C@@H](O)[C@@H]1O [fludarabine] (first compound 0.04 µM, partner dose 0.2 µM)",104,36.3,113,91.8,87.2,10.7,15.2,93.6
"CC(C)C[C@H](NC(=O)[C@H](Cc1ccccc1)NC(=O)c1cnccn1)B(O)O [Bortezomib] + C=C(c1ccc(C(=O)O)cc1)c1cc2c(cc1C)C(C)(C)CCC2(C)C [Bexarotene] (first compound 0.001 µM, partner dose 2 µM)",80,62,66.6,53.2,69.9,91.4,76.4,63.3
"Cn1c(=O)n(-c2ccc(C(C)(C)C#N)cc2)c2c3cc(-c4cnc5ccccc5c4)ccc3ncc21 + C#Cc1cccc(Nc2ncnc3cc(OCCOC)c(OCCOC)cc23)c1 [erlotinib] (first compound 0.004 µM, partner dose 0.8 µM)",91.9,89.7,83.6,95.6,78,87.5,87.1,100
"COc1ccc(C2=N[C@@H](c3ccc(Cl)cc3)[C@@H](c3ccc(Cl)cc3)N2C(=O)N2CCNC(=O)C2)c(OC(C)C)c1 [Nutlin-3] + Nc1ncn([C@H]2C[C@H](O)[C@@H](CO)O2)c(=O)n1 [decitabine] (first compound 0.1 µM, partner dose 0.1 µM)",83.9,96.1,92.2,74.8,81.4,92.7,118,75.4
"COc1ccc(C2=N[C@@H](c3ccc(Cl)cc3)[C@@H](c3ccc(Cl)cc3)N2C(=O)N2CCNC(=O)C2)c(OC(C)C)c1 [Nutlin-3] + CNC(=O)c1cc(Oc2ccc(NC(=O)Nc3ccc(Cl)c(C(F)(F)F)c3)cc2)ccn1 [sorafenib] (first compound 0.1 µM, partner dose 0.4 µM)",89.6,114,119,81.1,92.7,97.7,108,97.3
"COc1ccc(C2=N[C@@H](c3ccc(Cl)cc3)[C@@H](c3ccc(Cl)cc3)N2C(=O)N2CCNC(=O)C2)c(OC(C)C)c1 [Nutlin-3] + Nc1ccn([C@@H]2O[C@H](CO)[C@@H](O)C2(F)F)c(=O)n1 [gemcitabine] (first compound 0.1 µM, partner dose 0.0004 µM)",95.7,104,89,82.6,84.2,96,92.5,82.2
"CC(C)C[C@H](NC(=O)[C@H](Cc1ccccc1)NC(=O)c1cnccn1)B(O)O [Bortezomib] + C=CCNC1=C2C[C@@H](C)C[C@H](OC)[C@H](O)[C@@H](C)/C=C(\C)[C@H](OC(N)=O)[C@@H](OC)/C=C\C=C(/C)C(=O)NC(=CC1=O)C2=O [Tanespimycin] (first compound 0.001 µM, partner dose 0.002 µM)",76.1,70.8,73.1,64.6,101,88.5,53.4,63
"Cc1cc(Nc2cc(N3CCN(C)CC3)nc(/C=C/c3ccccc3)n2)n[nH]1 + Nc1ncn([C@H]2C[C@H](O)[C@@H](CO)O2)c(=O)n1 [decitabine] (first compound 0.04 µM, partner dose 0.1 µM)",84.5,91.9,81.3,83.4,103,95.9,114,70.4
"Cc1cn(-c2cc(NC(=O)c3ccc(C)c(Nc4nccc(-c5cccnc5)n4)c3)cc(C(F)(F)F)c2)cn1 [nilotinib] + CCCCCCCCc1ccc(CCC(N)(CO)CO)cc1 [fingolimod] (first compound 0.2 µM, partner dose 2 µM)",97.2,88.2,88.3,104,78.7,88,92.9,90.8
"Cn1c(=O)n(-c2ccc(C(C)(C)C#N)cc2)c2c3cc(-c4cnc5ccccc5c4)ccc3ncc21 + O=C(O)c1ccc2c(c1)nc(Nc1cccc(Cl)c1)c1ccncc12 [CX4945] (first compound 0.004 µM, partner dose 0.4 µM)",96.7,70.1,98.3,96.9,76.6,84.5,92.7,97.3
"Cc1cn(-c2cc(NC(=O)c3ccc(C)c(Nc4nccc(-c5cccnc5)n4)c3)cc(C(F)(F)F)c2)cn1 [nilotinib] + O=C(O)c1ccc2c(c1)nc(Nc1cccc(Cl)c1)c1ccncc12 [CX4945] (first compound 0.2 µM, partner dose 0.4 µM)",85.3,103,84.5,77.5,93.8,85.4,98,118
"Cc1cn(-c2cc(NC(=O)c3ccc(C)c(Nc4nccc(-c5cccnc5)n4)c3)cc(C(F)(F)F)c2)cn1 [nilotinib] + Cn1sc(=O)n(Cc2ccccc2)c1=O [TDZD-8] (first compound 0.2 µM, partner dose 0.4 µM)",112,105,101,101,142,93.5,90.4,115
"Cc1cn(-c2cc(NC(=O)c3ccc(C)c(Nc4nccc(-c5cccnc5)n4)c3)cc(C(F)(F)F)c2)cn1 [nilotinib] + C=CCNC1=C2C[C@@H](C)C[C@H](OC)[C@H](O)[C@@H](C)/C=C(\C)[C@H](OC(N)=O)[C@@H](OC)/C=C\C=C(/C)C(=O)NC(=CC1=O)C2=O [Tanespimycin] (first compound 0.2 µM, partner dose 0.002 µM)",88.3,105,69.1,82.7,105,84.2,114,91.8
"COc1ccc(C2=N[C@@H](c3ccc(Cl)cc3)[C@@H](c3ccc(Cl)cc3)N2C(=O)N2CCNC(=O)C2)c(OC(C)C)c1 [Nutlin-3] + CCCCCCCCc1ccc(CCC(N)(CO)CO)cc1 [fingolimod] (first compound 0.1 µM, partner dose 2 µM)",96.7,90.9,62.7,90.7,82.6,84.1,113,79
"COc1ccc(C2=N[C@@H](c3ccc(Cl)cc3)[C@@H](c3ccc(Cl)cc3)N2C(=O)N2CCNC(=O)C2)c(OC(C)C)c1 [Nutlin-3] + C[C@]1(O)C[C@@H](c2nc(-c3ccc4ccc(-c5ccccc5)nc4c3)c3c(N)nccn32)C1 [OSI906] (first compound 0.1 µM, partner dose 0.4 µM)",90.7,95.5,92.3,105,80.6,87.2,101,80.7
"COc1ccc(C2=N[C@@H](c3ccc(Cl)cc3)[C@@H](c3ccc(Cl)cc3)N2C(=O)N2CCNC(=O)C2)c(OC(C)C)c1 [Nutlin-3] + CC(=O)O[C@@]12CO[C@@H]1C[C@H](O)[C@@]1(C)C(=O)[C@H](O)C3=C(C)[C@@H](OC(=O)[C@H](O)[C@@H](NC(=O)OC(C)(C)C)c4ccccc4)C[C@@](O)([C@@H](OC(=O)c4ccccc4)[C@H]21)C3(C)C [Docetaxel] (first compound 0.1 µM, partner dose 0.0001 µM)",42.8,56.7,43.8,56.8,48.2,38.3,47.5,52.7
"Cn1c(=O)n(-c2ccc(C(C)(C)C#N)cc2)c2c3cc(-c4cnc5ccccc5c4)ccc3ncc21 + C=C(c1ccc(C(=O)O)cc1)c1cc2c(cc1C)C(C)(C)CCC2(C)C [Bexarotene] (first compound 0.004 µM, partner dose 2 µM)",101,77.1,79.9,108,77,84.2,79.8,82.1
